Experimental data as given in paper PMC12136788.
Some of the results follow.

B1: chr2:42682433:42682535:+|CDS|ENSG00000057935|unk|total|mutant (ssRNA)
RNA: GGGAGUUCUACAGUCCGACGAUCUCACGCUAUGGAUACAUUGUACCGACACAGCUAUGAUUUGAGCAGUGCCAUCCGUGUCUCCGUACCACUCGGAGGACCUGUUUUAUGCAGAGAUGAAAUGGAGGAAUGGUCAGCCUCUGACAACAGAGGAUUGAGCAUCA
B2: chr4:55870735:55870847:+|CDS|ENSG00000090989|unk|FALSE|bound_elsewhere (ssRNA)
RNA: GGGAGUUCUACAGUCCGACGAUCGGCAUCUGAAAAACAAGUCAACAUCCUGAUGAAAUUGCUAGAUGAGGCUCUAAAGGAGGUAGAUCAGAUUGAAUUGAAACUGAGCAGUUAUGAGGAAAUGCUCCAAAGUGUAAAAGAACACAACAGAGGAUUGAGCAUCA
B3: chr10:113908677:113908778:+|3pUTR|ENSG00000196865|unk|FALSE|bound_elsewhere (ssRNA)
RNA: GGGAGUUCUACAGUCCGACGAUCAGCUAUGCUCCUUACUUACUUCUUUUAUUAUAAACAAAUUCCUUUGCUUUGGCUGAUACUAGCUGAGUCAUUGAUCAUCAUUGGUACCAUGAUAUUGUAAUCUAUGCUGCUAUUUGGCACCAACAGAGGAUUGAGCAUCA
B4: ENSG00000126524:stop:overlap|stop_codon|ENSG00000126524|stop_codon|NA|stop_codon (ssRNA)
RNA: GGGAGUUCUACAGUCCGACGAUCAGCUCAAGCCACUGAUCAAGGUCAUAGAAAGUGAAGAUUAUGGCCAACAGUUAGAAAUCUAGAGACGGAGUUUCACCGUGUUAGCCAGGACGGUCUUGAUCUCCUGACCUCAUGAUCCACCAACAGAGGAUUGAGCAUCA
B5: ENSG00000170113:stop:overlap|stop_codon|ENSG00000170113|stop_codon|NA|stop_codon (ssRNA)
RNA: GGGAGUUCUACAGUCCGACGAUCUGUUCAAAGAGUUCAAUUUCAACCUUGGGGAGAUGAACAAAUCUAAUAUGAAAACAGACUAGAUUGCAAUAGGAGCUUGGAUGGUUCGAGGAAUAGGCAUUGGAGGUGGUUUCUGGCCGUCAACAGAGGAUUGAGCAUCA
B6: chr12:7652437:7652835:-|CDS|ENSG00000111701|control|control|control (ssRNA)
RNA: GGGAGUUCUACAGUCCGACGAUCCUCCCAGGCUAUUAGAGAGUUUCUGAGUCGGCACCCUGGUGUGACUCUAGUGAUCUACGUAGCUCGGCUUUUUUGGCACAUGGAUCAACAAAAUCGGCAAGGUCUCAGGGACCUUGUUAACAACAGAGGAUUGAGCAUCA
B7: chr11:61403655:61403707:-|3pUTR|ENSG00000149532|msi1_unk|FALSE|overlapping (ssRNA)
RNA: GGGAGUUCUACAGUCCGACGAUCUGAAGUAACCAGGAGGAAUGGGGAAAGAAGCAAGUUGGGCAGGAUAUGGCCUACUUCCAUAGGCUUUUCUUUUUUCAGGUUUGAUGUAAGCAUGGGCUUACAUCCCCCAGGUACAUACUUCAACAGAGGAUUGAGCAUCA
B8: chr17:4948375:4948459:-|5pUTR_CDS|ENSG00000108518|msi1_unk|total|mutant (ssRNA)
RNA: GGGAGUUCUACAGUCCGACGAUCAGCCGAGGCAGCUCGAGCCCAGUCCGCGGCCCCAGCAGCAGCGCCGAGAGCAGCCCCAGCCGCAGCGCCAUGGCCGGGUGGAACGCCUACAUCGACAACCUCAUGGCGGACGGGACCUGUCAACAGAGGAUUGAGCAUCA
B9: chr17:1004907:1005008:-|3pUTR|ENSG00000159842|msi1|FALSE|unique (ssRNA)
RNA: GGGAGUUCUACAGUCCGACGAUCAAGAGGGGCCAGGCUUCCUGGAGGGUGACUGAUGUGGCCGAAGCAGGUGUCCAGGCAGGUAGGCUGCAGCCAGGAGCUCCCUGGCACCGCAGGACCUCGUGGUACUCUUGCCUUAGAUUUCAACAGAGGAUUGAGCAUCA
B10: ENSG00000011677:stop:overlap|stop_codon|ENSG00000011677|stop_codon|NA|stop_codon (ssRNA)
RNA: GGGAGUUCUACAGUCCGACGAUCUCUAUUGGGCCACAUAUGUCAACCGGGAGUCAGCUAUCAAGGGCAUGAUCCGCAAACAGUAGAUAGUGGUGGCAGUGCAGCAACCAGAGCACUGUAUACCCCGUGAAGCAUCCAGGCACCCAACAGAGGAUUGAGCAUCA
B11: chr13:30205178:30205279:-|3pUTR|ENSG00000102781|msi1|FALSE|bound_elsewhere (ssRNA)
RNA: GGGAGUUCUACAGUCCGACGAUCUUGGCAGUUUCUCUAACGACUCUGUAUAGCUUCUGGCUUCUACUACUGAAACAAGAGUUUAGAUCACUGAUGGAGAGGCAUAGUAAUCUGUUUGUGCUUUGGAAAAAUAUAUAAAAGUUUCAACAGAGGAUUGAGCAUCA
B12: chr12:53253816:53253925:+|CDS|ENSG00000182544|unk|FALSE|unique (ssRNA)
RNA: GGGAGUUCUACAGUCCGACGAUCUCUCUUCAUGUUGACUUUCUCUACCAGCCCAGGCCAGGAGAGUCCGGUGGAGUCCUUCAUAGCCUUUCUACUUAUUGAGUUGGCUUGUGGAUUAUACUUUCCCAGCAUGAGCUUCCUACGCAACAGAGGAUUGAGCAUCA
B13: chr6:158982484:158982688:-|CDS|ENSG00000130363|control|control|control (ssRNA)
RNA: GGGAGUUCUACAGUCCGACGAUCGAAGAAGAAGAGCUGGCUAACCUGCGGGCCAGUCAGCGUGAGUAUGAAGAACUACGGAAUAGUGAACGUGCUGAAGUUCAACGACUUGAAGAGCAAGAGAGGCGACACCGAGAAGAAAAACAACAGAGGAUUGAGCAUCA
B14: chr16:70157515:70157662:+|3pUTR|ENSG00000090857|msi1|FALSE|unique (ssRNA)
RNA: GGGAGUUCUACAGUCCGACGAUCCUCCCUAUAAUUUUCUUCAUCUCUUGCUAAUCUCUAUAAUAAGGUUGCUUUUUCUUUCUUAGUUGAGUAAACAAGUAAGCCACAGUGUUUGAAAGGGAAAAACCAUAUUGCCUUGUGUGUCAACAGAGGAUUGAGCAUCA
B15: chr11:47420279:47420382:-|CDS|ENSG00000165916|unk|FALSE|unique (ssRNA)
RNA: GGGAGUUCUACAGUCCGACGAUCAAACAGGGUGGACAUCCUGGACCCCGCCCUCCUCCGCUCGGGCCGCCUUGACCGCAAGAUAGAGUUCCCGAUGCCCAAUGAGGAGGCCCGGGCCAGAAUCAUGCAGAUCCACUCCCGAAACAACAGAGGAUUGAGCAUCA
B16: ENSG00000136451:be:win_1851|3pUTR|ENSG00000136451|bound_else_gene|NA|bound_elsewhere_windowed (ssRNA)
RNA: GGGAGUUCUACAGUCCGACGAUCUCAUAAGUAGAACCCACUUCAAAAUAAAAAAACAGCAUUACUAUUUCUAAUCCCAAGGAAUCACUUUAUUGUAAACACUAGCAGAACUCUUCUCCCUAUACAAGGUGGAUGGCUGAUUUUCAACAGAGGAUUGAGCAUCA
B17: chr15:48342169:48342270:+|3pUTR|ENSG00000128951|msi1_unk|total|mutant (ssRNA)
RNA: GGGAGUUCUACAGUCCGACGAUCAAAAAAAAAAAAAGUUUUUGCUUCAAGUGUUUUGGUGUUUUGCACUUCUGUAAACUUACCCGCUUUACCUUCUAAAAGUACUGCAUUUUUUACUUUUUUUUAUGAUCAAGGAAAAGAUCACAACAGAGGAUUGAGCAUCA
B18: ENSG00000198589:be:win_4151|CDS|ENSG00000198589|bound_else_gene|NA|bound_elsewhere_windowed (ssRNA)
RNA: GGGAGUUCUACAGUCCGACGAUCCGGCUACACAUGAACUGGAAAAUAUUGAACCUACUCAAGGCCUUUCAAUAGAAGCCUCUGUGACAUUUUUGCAGAGGCUAAUUAGCCUUGUGGAUGUGCUUAUAUUUGCAAGUUCUCUUGCAACAGAGGAUUGAGCAUCA
B19: chr5:69350983:69352230:-|three_prime_utr|ENSG00000085231|control|control|control (ssRNA)
RNA: GGGAGUUCUACAGUCCGACGAUCCACAGCAUCCUACAAGGAAGAAAUCGUGCAUCAGCUGCCCAGUAAUAAACCAGAAGAGCUAGAAAAUAAUGUAGAUCAGAUCUUGAAAUGGAUUGAGCAGUGGAUCAAAGAUCAUAACUCCAACAGAGGAUUGAGCAUCA
B20: ENSG00000149428:stop:overlap|stop_codon|ENSG00000149428|stop_codon|NA|stop_codon (ssRNA)
RNA: GGGAGUUCUACAGUCCGACGAUCGCUCCUGCAGUUCUCACCUGAGGAAGUGUUGGGCAUGGUUCUCAAUUAUUCUCGUUCUCUAGCUGAAGAUUUUGCAGAGCAGCCCAUCAAGGAUGCAGUGAUCACCGUGCCAGUCUUCUUCAACAGAGGAUUGAGCAUCA
B21: chrX:149581652:149582231:-|three_prime_utr|ENSG00000267978|control|control|control (ssRNA)
RNA: GGGAGUUCUACAGUCCGACGAUCCAAAUGUUCUUUUAAUGGUCAGUUUAAUGAACUUCACCAUCGAAGUUAAUGAAUGACAGUAGUCACACAUAUUGCUGUUUAUGUUAUUUAGGAGUAAGAUUCUUGCUUUUGAGUCACAUGCAACAGAGGAUUGAGCAUCA
B22: ENSG00000104231:stop:overlap|stop_codon|ENSG00000104231|stop_codon|NA|stop_codon (ssRNA)
RNA: GGGAGUUCUACAGUCCGACGAUCUCUUGGAAUAUCUUAAUGAUGAAGAACAAUUCUGUAAAAAUGUUGAAUCUUACUUGGAAUAGUCAUUCAAAGAUUCAAGUCAGAAAUCACAGGGAAAAUUCUAUUACAUGUUUAAGUCCACAACAGAGGAUUGAGCAUCA

target: MSI1 full-length (mouse, UniProt Q61474 1-362); assay: nsRBNS (natural sequence RNA bind-n-seq); RBNS binding buffer (assumed for nsRBNS): 25 mM Tris pH 7.5, 150 mM KCl, 3 mM MgCl2, 0.01% Triton X-100, 500 ug/ml BSA, 20 U/ml SUPERase-In, 4 C; UNK is unkempt and MSI1 is Musashi-1; names of the RNAs are library labels; protein concentration not given here; high values mean tight binding
Chain of UniProt Q61474 (Q61474 whole entry): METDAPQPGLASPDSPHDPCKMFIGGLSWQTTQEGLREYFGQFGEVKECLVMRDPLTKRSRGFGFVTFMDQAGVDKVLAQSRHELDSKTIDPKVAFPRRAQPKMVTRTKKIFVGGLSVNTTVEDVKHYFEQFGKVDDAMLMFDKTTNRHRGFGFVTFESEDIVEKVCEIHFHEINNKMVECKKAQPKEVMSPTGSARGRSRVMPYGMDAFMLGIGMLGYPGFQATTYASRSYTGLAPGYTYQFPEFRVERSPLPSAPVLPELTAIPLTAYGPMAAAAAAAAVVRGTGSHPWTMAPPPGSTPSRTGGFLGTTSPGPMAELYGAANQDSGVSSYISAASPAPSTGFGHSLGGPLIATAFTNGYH

Row | Binder | binding signal
1 | B1 | 0.345 enrichment R
2 | B2 | 0.437 enrichment R
3 | B3 | 3.92 enrichment R
4 | B4 | 0.608 enrichment R
5 | B5 | 0.642 enrichment R
6 | B6 | 0.299 enrichment R
7 | B7 | 0.452 enrichment R
8 | B8 | 0.583 enrichment R
9 | B9 | 0.628 enrichment R
10 | B10 | 0.512 enrichment R
11 | B11 | 2.13 enrichment R
12 | B12 | 0.503 enrichment R
13 | B13 | 0.421 enrichment R
14 | B14 | 2.4 enrichment R
15 | B15 | 0.568 enrichment R
16 | B16 | 2.65 enrichment R
17 | B17 | 0.24 enrichment R
18 | B18 | 0.181 enrichment R
19 | B19 | 3.05 enrichment R
20 | B20 | 0.613 enrichment R
21 | B21 | 0.478 enrichment R
22 | B22 | 0.317 enrichment R
